Experimental data taken from the supplement of paper PMC12889115.
Some of the results follow. Rule as the data show it: active = 25% or less and inactive = the rest. Most values come without repeats; read them as rough.

Key:
[1] = tested on: Salmonella enterica serovar Typhimurium SL1344; experiment: bacterial growth OD600 after 18 h in MHB with 0.5 µg/mL polymyxin B; higher = more bacterial growth (less inhibition); details: 25 µM; polymyxin B 0.5 µg/mL; system: broth
Method: (§1)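 Secondary screen of the 553 primary hits at 25 µM. (i) S. Typhimurium SL1344 grown in Mueller-Hinton broth with 0.5 µg/mL polymyxin B, OD600 read after 18 h. (ii) SAFIRE assay: RAW 264.7 macrophages infected with S. Typhimurium sifB::gfp (MOI 30); compound added 2 h post-infection; cells fixed at 18 h; GFP-positive pixel fraction per macrophage imaged by confocal microscopy and expressed as % of DMSO control.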

[2] = tested on: Salmonella enterica serovar Typhimurium SL1344; experiment: intramacrophage bacterial GFP load (SAFIRE), percent of DMSO control (% of DMSO); higher = more intracellular bacteria (less inhibition); details: 25 µM; system: infected RAW 264.7 macrophages
Method: as §1
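For bacterial growth OD600 after 18 h in MHB with 0.5 µg/mL polymyxin B in this document: polymyxin B level opens the outer membrane while sparing the inner membrane, with novobiocin wells as reference growth inhibitor.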
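For intramacrophage bacterial GFP load (SAFIRE), percent of DMSO control in this document: compounds tested were the hits of an earlier 50 µM broth growth screen of a drug-like diversity library run with polymyxin B.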

SMILES | bacterial growth OD600 [1] | intramacrophage bacterial GFP load [2]
COc1ccccc1OC1CCN(c2nncc(-c3ccccc3C)n2)CC1 | -0.025 | inactive: 103
COc1ccc(CN(Cc2ccncc2)C(=O)c2ccc(-c3cccc(F)c3)cc2)cc1OC1CCCC1 | 0.008 | inactive: 95.3
CCC1CN(C(=O)c2cccc(Cn3cccn3)c2)Cc2ccc(Cl)cc2O1 (stereo not drawn) | 0 | active: 18.7
CC1CN(Cc2ccsc2)Cc2cc(Cl)ccc2O1 (stereo not drawn) | 0.196 | inactive: 121
Cc1ccc2c(c1)CN(Cc1cnn(C)c1C)CC(c1ccsc1)O2 (stereo not drawn) | 0.007 | inactive: 85.9
Cc1c(C(=O)N2CCCCC2)sc2ncnc(N3CCCCCCC3)c12 | 0.006 | inactive: 51
COc1ccc(OC)c(CN2CCOc3ccc(C(O)CCc4ccccc4)cc3C2)c1 (stereo not drawn) | 0.334 | inactive: 51.3
COc1cccc(-c2ccc(NC(=O)C3CCCN3C(=O)C3(C)CC3)cc2)c1 (stereo not drawn) | 0.16 | inactive: 68.4
O=C(CC(c1ccccc1)c1cccc(Cl)c1)N1CCOCC1 (stereo not drawn) | 0.531 | inactive: 146
